Read-outs that look alike come from different tables or passages of the source.

One assay concerns RS4;11 cells. Kind of assay: cells. The conditions noted are these: Homo sapiens, RS4-11, 48 h.
In another assay the test system is Molt-4 cells. Description: cells. Particulars: Homo sapiens, MOLT-4, read-out: Cellular activity (IC50, nM) Molt-4.
The mark [1] stands for this setting: read-out: Cellular activity (IC50, nM) RS4;11.
The mark [2] stands for this setting: read-out: Cellular activity (IC50, nM) RS4, 11.

By IC50 is commonly meant the concentration needed to halve the response being measured. In the case of `C[C@]1(O)CC[C@H](CNc2ccc(S(=O)(=O)NC(=O)c3ccc(-c4ccc(N5CC(C(F)(F)F)CC5c5ccccc5C5CC5)cc4)cc3Oc3cnc4[nH]ccc4c3)cc2[N+](=O)[O-])CC1` (stereo partly drawn) [Example G134, 3-((1H-pyrrolo[2,3-b]pyridin-5-yl)oxy)-4′-(2-(2-cyclopropylphenyl)-4-(trifluoromethyl)pyrrolidin-1-yl)-N-((4-((((1r,4r)-4-hydroxy-4-methylcyclohexyl)methyl)amino)-3-nitrophenyl)sulfonyl)-[1,1′-biphenyl]-4-carboxamide], the IC50 in the assay with RS4;11 cells (setting [1]) was 33 nM; with Molt-4 cells, 1430 nM.

With `O=C(NS(=O)(=O)c1ccc(NCC2CCOCC2)c([N+](=O)[O-])c1)c1ccc(-c2ccc(N3CCCN3c3ccccc3C3CC3)cc2)cc1Oc1cnc2[nH]ccc2c1` [Example A156, 3-((1H-pyrrolo[2,3-b]pyridin-5-yl)oxy)-4′-(2-(2-cyclopropylphenyl)pyrazolidin-1-yl)-N-((3-nitro-4-(((tetrahydro-2H-pyran-4-yl)methyl)amino)phenyl)sulfonyl)-[1,1′-biphenyl]-4-carboxamide], the IC50 with RS4;11 cells (setting [1]) was 142 nM; with Molt-4 cells it was 4400 nM.

As for `CC(=O)N1CCC(c2ccccc2[C@H]2CCCN2c2ccc(-c3ccc(C(=O)NS(=O)(=O)c4ccc(NC[C@H]5CC[C@](C)(O)CC5)c([N+](=O)[O-])c4)c(Oc4cnc5[nH]ccc5c4)c3)cc2)CC1` [Example G123, 3-((1H-pyrrolo[2,3-b]pyridin-5-yl)oxy)-4′-((R)-2-(2-(1-acetylpiperidin-4-yl)phenyl)pyrrolidin-1-yl)-N-((4-((((1r,4r)-4-hydroxy-4-methylcyclohexyl)methyl)amino)-3-nitrophenyl)sulfonyl)-[1,1′-biphenyl]-4-carboxamide], the IC50 with RS4;11 cells (setting [1]) was 5.4 nM; in the assay with Molt-4 cells it was 3560 nM.

As to `O=C(NS(=O)(=O)c1ccc(NCC2CCOCC2)c([N+](=O)[O-])c1)c1ccc(-c2ccc(N3CCCC3c3ccccc3N3CCC(O)CC3)cc2)cc1Oc1cnc2[nH]ccc2c1` (stereo not drawn) [Example A124, 3-((1H-pyrrolo[2,3-b]pyridin-5-yl)oxy)-4′-(2-(2-(4-hydroxypiperidin-1-yl)phenyl)pyrrolidin-1-yl)-N-((3-nitro-4-(((tetrahydro-2H-pyran-4-yl)methyl)amino)phenyl)sulfonyl)-[1,1′-biphenyl]-4-carboxamide], the IC50 in the assay with RS4;11 cells (setting [1]) was 14 nM; in the assay with Molt-4 cells, 5840 nM.

As for `O=C(NS(=O)(=O)c1ccc(OCC2(F)CCN(C3CCOCC3)CC2)c([N+](=O)[O-])c1)c1ccc(C2=CCC(N3CCCC3c3ccccc3C3CC3)CC2)cc1Oc1cnc2[nH]ccc2c1` (stereo not drawn) [Example G36, 3-((1H-pyrrolo[2,3-b]pyridin-5-yl)oxy)-4′-(2-(2-cyclopropylphenyl)pyrrolidin-1-yl)-N-((4-((4-fluoro-1-(tetrahydro-2H-pyran-4-yl)piperidin-4-yl)methoxy)-3-nitrophenyl)sulfonyl)-2′,3′,4′,5′-tetrahydro-[1,1′-biphenyl]-4-carboxamide], the results for the IC50 with RS4;11 cells (setting [2]) and in the assay with Molt-4 cells were 41 nM and 474 nM, respectively.

Turning to `COc1ccccc1C1CCCN1C1CCC(c2ccc(C(=O)NS(=O)(=O)c3ccc(NCC4CCOCC4)c([N+](=O)[O-])c3)c(Oc3cnc4[nH]ccc4c3)c2)CC1` (stereo not drawn) [Example D103, 2-((1H-pyrrolo[2,3-b]pyridin-5-yl)oxy)-4-(4-(2-(2-methoxyphenyl)pyrrolidin-1-yl)cyclohexyl)-N-((3-nitro-4-(((tetrahydro-2H-pyran-4-yl)methyl)amino)phenyl)sulfonyl)benzamide], the IC50 was 144 nM in the assay with RS4;11 cells (setting [2]) and more than 10000 nM with Molt-4 cells.

(Values after patent US11420968B2 (priority 2018, dated 2022).)
